Measurements from the RNAGym collection of RNA variant scans (doi:10.1073/pnas.2313332121).
Variants at the background level are over-represented here.

B1: TPR 5TU (parent)
chain: GGAUCUUCUCGAUCUAACAAAAAAGACAAAUCUGCCACAAAGCUUGAGAGCAUCUUCGGAUGCAGAGGCGGCAGCCUUCGGUGGCGCGAUAGCGCCAACGUUCUCAACUAUGACACGCAAAACGCGUGCUCCGUUGAAUGGAGUUUAUCAUG

Variants of: B1
Assay: polymerase ribozyme fitness, log enrichment relative to wild type (log ratio); higher = more active; in vitro selection for triplet polymerase activity
Outline: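 To select mutant libraries of each subunit of a heterodimeric triplet polymerase ribozyme, built by PCR and transcribed, each was annealed with a biotinylated primer, partner subunit and triplets, then incubated frozen at −7 °C. Extended constructs were gel-excised, captured on streptavidin beads and amplified by RT-PCR, in one round carried out in triplicate. Illumina sequencing of input and output libraries kept genotypes with ≥10 input reads and ≥1 read per output. Fitness is the base-2 logarithm of genotype enrichment relative to wild-type enrichment, from inverse-variance-weighted replicate averages.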

Variant | polymerase ribozyme fitness (log ratio)
GGAUCUUCUCGAUCUAACAAAAAAGACAAAUCUGCCACAAAGCUUUAGAGCAUCUUCGGAUGCAGAGGCGGCAGCCUUCCGUGGCGCGAUAGCGCCAACGUCCUCAACUAUGACACGCAAAACGCGUGCUCCGUUGAAUGGAGUUUAUCACG | ≤ -4.2
GGAUCUUCUCGAUCUAACAAAAAAGACAAAUCUGCCACAAAGCUUUAGAGCAUCUUCGGAUGCAGAGGCGGCAGCCUUCGGUAGCGCGAUAGCGCCAACGUUCUCAACUAUGACACGCAAAACGCGUGCUCCGUUGAAUGGACUUUAUCAUG | -4.16
GGAUCUUCUCGAUCUAACAAAAAAGACAAAUCUGCCACAAAGCUUUAGAGCAUCUUCGGAUGCAGAGGCGGCAGCCUUCGGUGUCGCGAUAGCGCCUACGUUCUCAACGAUGACACGCAAAACGCGUGCUCCGUUGAAUGGAGUUUAUCAUG | ≤ -4.2
GGAUCUUCUCGAUCUAACAAAAAAGACAAAUCUGCCACAAAGCUUUAGAGCAUCUUCGGAUGCAGAGGCGGCAGCCUUCGGUGGCGCCAUAGCGCCUACGUUCUCAACUAUGACACGCAAAACGCGUGCUCCGUUAAAUGGAGUUUAUCAUG | ≤ -4.2
GGAUCUUCUCGAUCUAACAAAAAAGACAAAUCUGCCACAAAGCUUUAGAGCAGUUUCGGAUGCAGAGGCGGCAGCCUUCGGUGGCGCGAAAGCGCCAACGUUCUCAACUAUGACACGCAAAACGCGUGCUCCGUUGAAUGGAGUUUAUCAUG | ≤ -4.2
GGAUCUUCUCGAUCUAACAAAAAAGACAAAUCUGCCACAAAGCUUUAGAGCAUCUUCGGAUGCAGAGGCGGCAGCCUCCGGUGGCGCGAUAGCGUCAACGUUCUCAACUUUGACACGCAAAACGCGUGCUCCGUUGAAUGGAGUUAAUCAUG | ≤ -4.2
GGAUCUUCUCGAUCUAACAAAAAAGACAAAUCUGCCACAAAGCUUGCGCGCAUCUUCGGAUGCAGAGGCGGAAGCCUUCGGUGGCGCGAUAGCGCUAACGUUCUGAACUAUGACACGCAAAUCGCGUGCUCCGAUGAAUGGAGUUUAUCAUG | ≤ -4.2
GGAUCUUCUCGAUCUAACAAAAAAGACAAAUCUGCCACAAAGCUUGCGCGCAUCUUCGGAUGCAGAGGCGGCAGCCUUCGGUCGCGCGAUAGCGCCAACGUUCUCAACUAUGACACGCAGAACGCGUGCUCCGUUGAAUGGAGUUUAUCAUG | ≤ -4.2
GGAUCUUCUCGAUCUAACAAAAAAGACAAAUCUGCCACAAAGCUUGCGCGCAUCUUCGGAUGCAGAGGCGGCAGCCUUCGGUGGCGCAAUAGCGCCAACGUUCUCAACUAUGACACGCAAAACGCGUGCUCCGUUGAAAGGAGUUUAACAUG | ≤ -4.2
GGAUCUUCUCGAUCUAACAAAAAAGACAAAUCUGCCACAAAGCUUGCGGACAUCUUCGGAUGCAGAGGCGGCAGCCUUCGCUAGCGCGAUAGCGCCAACGUCCUCAAAUAUGACACGCUAAACGCGUGCUCCGUUAAAUGGAGUUUAUCAUG | ≤ -4.2
GGAUCUUCUCGAUCUAACAAAAAAGACAAAUCUGCCACAAAGCUUGCGUGCAUCUUCGCAUGCAGGGGCGGCAGCCUACGGUGGCGCGAUAGCGCCAACGUUCUCAACUAUGACACGCAAAACGCGUGCUCCGUUGAAUGGAGUUUAUCAUG | ≤ -4.2
GGAUCUUCUCGAUCUAACAAAAAAGACAAAUCUGCCACAAAGCUUGCGAGCCACUUCGGAUGCAGAGGCGGCAGCCUUCGGUGGCGCGAUAGAGCCAACGUUCUCAACUAUGACACGCAAAACGCGUGCUCCGUUGAAUGGAGUUUAUCAUG | ≤ -4.2
GGAUCUUCUCGAUCUAACAAAAAAGACAAAUCUGCCACAAAGCUUGCGAGCGUCUUCGGAUGCAGAGGCGGCAGCCUUCGGUGGCGCGAUAGCGCCAACAUUCUCAACUAUGACACGCAAAACGCGUGCUCCGUUGAAUGCAGUUUAUCAUG | ≤ -4.2
GGAUCUUCUCGAUCUAACAAAAAAGACAAAUCUGCCACAAAGCUUGCGAGCUUCUUCGGAUGCAGAGGCGGCAGCCUUCGGAGGCGCGAUAGCGCCAACGUUCUCAACUAUGACACGCAUAACGCGUGCUCCGUUGAAUGGAGUUUAUCAUG | -1.94
GGAUCUUCUCGAUCUAACAAAAAAGACAAAUCUGCCACAAAGCUUGCGAGCAUCUUCGGAUGCAGAGGCGGCCGCCUUCGGUGGCGCGAUAGGGCCAACGUUCUCAACUAUGACACGCAAAACGCGUGCUCCGUUGAAUUGAGUUUAUCAUG | ≤ -4.2
GGAUCUUCUCGAUCUAACAAAAAAGACAAAUCUGCCACAAAGCUUGCGAGCAUCUUCGGAUGCAGAGGCGGCAGCCUUCGGUGGCGCGUUAGCGCCAACGUUCUCAACUAUGACACGCAAAACGCGUGCUCCGUUGAAUGGAGUUUAUCGUG | -1.84
GGAUCUUCUCGAUCUAACAAAAAAGACAAAUCUGCCACAAAGCUUGCGAGCAUCUUCGGAUGCAGAGGCGGCAGCCUUCGGUGGCGCGAUCGCGCCAACGUUCUCAACUAUGACACGCAAAACGCGUGCUCCGUUGAAUGGAGUUGAUCAAG | ≤ -4.2
GGAUCUUCUCGAUCUAACAAAAAAGACAAAUCUGCCACAAAGCUUGCGAGCAUCUUCGGAUGCAGAGGCGGCAGCCUUCGGUGGCGCGAUGGAGCCAACGUUCUCAACUAUGACACGCAAAACGCGUGCUCCGUUGAAUGUAGUUUAUCAUG | ≤ -4.2
GGAUCUUCUCGAUCUAACAAAAAAGACAAAUCUGCCACAAAGCUUGCGAGCAUCUUCGGAUGCAGAGGCGGCAGCCUUCGGUGGCGCGAUUGCGUCAACGUUCUCAACUAUGACACGCAAAACGCGUGGUCCGUUGAAUGGAGUUUAUCAUG | ≤ -4.2
